Reference: the supplement of paper PMC3334620
Whole data set: some 33,000 sequences, median “E-score (-0.5 to 0.5)” near -0.013, cut for the highest 2% near 0.3. This is one part of the list.

target: T1, Msn1 (UniProt P22148); experiment: PBM E-score (8-mer binding enrichment) (E-score (-0.5 to 0.5)); higher = stronger / more preferred TF binding; most listed sequences are background and not binding sites; conditions: protein concentration: 200 nM; construct: GST-full length
T1 sequence: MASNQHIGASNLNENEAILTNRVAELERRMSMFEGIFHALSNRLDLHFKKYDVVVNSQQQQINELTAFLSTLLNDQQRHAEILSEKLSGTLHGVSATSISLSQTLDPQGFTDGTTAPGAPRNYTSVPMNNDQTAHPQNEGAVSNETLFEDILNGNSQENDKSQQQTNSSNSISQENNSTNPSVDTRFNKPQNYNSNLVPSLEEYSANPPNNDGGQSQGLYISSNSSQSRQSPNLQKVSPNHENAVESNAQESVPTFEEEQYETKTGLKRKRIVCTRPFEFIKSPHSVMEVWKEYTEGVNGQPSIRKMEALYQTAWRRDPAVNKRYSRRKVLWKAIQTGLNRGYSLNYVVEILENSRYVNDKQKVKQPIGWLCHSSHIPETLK
Method in brief: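 PURExpress in vitro transcription/translation supplied GST-tagged yeast transcription factors, either full-length or DNA-binding domain. Applied at about 100-200 nM to universal all-10-mer Agilent arrays double-stranded by primer extension, the bound protein was detected with fluorescent anti-GST. E-scores, modified Wilcoxon-Mann-Whitney statistics, were given by the Universal PBM Analysis Suite to ungapped eight-base words pooled with their reverse complements after masliner normalisation.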

| Sequence | PBM E-score |
| --- | --- |
| AACACTGG | -0.0304 |
| ACGCGGCC | -0.0902 |
| CGGAAGGC | -0.115 |
| GAAGACCA | -0.102 |
| ATAAGAGC | 0.0327 |
| GAGTAGAA | -0.0105 |
| AGCCGTAA | -0.00403 |
| CCTGCTAA | -0.206 |
| GCGCACCA | -0.0442 |
| TCTAAACA | -0.0184 |
| GAGCAGCC | -0.151 |
| GTATGTCA | 0.35 |
| GCGAATGA | 0.13 |
| ACGTTTCT | 0.00409 |
| AATCCAAC | -0.126 |
| CTCTCCAC | -0.332 |
| ACGACCCT | -0.295 |
| CACCTCTG | -0.0825 |
| AGGTGGTA | -0.0458 |
| CGCGATCA | -0.0968 |
| CCTATTAC | -0.101 |
| CTGTGTCA | 0.02 |

| Sequence | PBM E-score |
| --- | --- |
| AGATGCCC | -0.173 |
| AAGCAAAG | -0.064 |
| GCAGTAGA | 0.0106 |
| CGACGAAC | 0.0816 |
| ACTTTCTG | 0.163 |
| CGCTTATA | 0.0306 |
| CGTCTTTC | -0.122 |
| AGACTCCT | -0.125 |
| TCACGAAA | 0.197 |
| ATCTAGGC | -0.14 |
| ACGCTTCG | -0.0757 |
| CGCCGGCC | -0.0553 |
| CACTCCAC | -0.0525 |
| TGCCTCAA | -0.14 |
| AGACTCCC | -0.253 |
| CAACCTGC | -0.00454 |
| ACTACCGC | 0.112 |
| ACCGCGGC | 0.014 |
| CCCTTCGG | -0.0863 |
| AAGGCTCG | -0.214 |
| GCTCCCAA | -0.22 |
| AGCAGTTG | -0.0796 |

| Sequence | PBM E-score |
| --- | --- |
| AAACGTGA | 0.021 |
| GCTCGCCA | -0.112 |
| GCCGCAGA | -0.0562 |
| CATTTCAG | -0.0324 |
| ACTGGTAA | 0.0484 |
| GGCCACAC | -0.102 |
| TCGTTGCA | 0.0106 |
| AAGCCAAT | 0.0816 |
| CACAGGCG | -0.208 |
| TAACAAAA | 0.228 |
| ACATTGTA | 0.143 |
| GTCCGCCA | 0.0788 |
| TTGCTAAA | -0.102 |
| AATGCTTG | -0.094 |
| GCAGATGC | -0.195 |
| GGAAACAC | 0.0884 |
| ACGTGGCT | -0.138 |
| AGAGTTGC | 0.108 |
| GCAAGGCA | -0.273 |
| CGGGCGTC | 0.0597 |
| CTCGATTA | -0.0362 |
| ATATGGCC | -0.169 |

| Sequence | PBM E-score |
| --- | --- |
| GAAAACTA | 0.0346 |
| AGCTAAAT | -0.105 |
| CGGAGAGC | -0.0906 |
| CAAGGGTA | -0.241 |
| CGATTGTA | 0.088 |
| ATTGCCTC | 0.0949 |
| AACACACG | -0.0269 |
| CATACACC | 0.0379 |
| TATGTTCA | 0.197 |
| AGGCTGCC | -0.169 |
| AACGTTGA | 0.0105 |
| TGCACCAA | -0.214 |
| CTATGCCA | -0.13 |
| GCTAAACA | -0.116 |
| CTGCAGGC | -0.26 |
| CAACCACG | -0.0971 |
| GGTTATAA | 0.163 |
| GCCTCAAA | -0.156 |
| AACCAAGG | 0.107 |
| AAAGGCGT | -0.112 |
